# This is one part of the list.
# Tested on: PfSIP2 AP2 domain 1 (GST-tagged)
# Test: gcPBM binding intensity (ln(normalized median fluorescence intensity)); higher = stronger DNA binding
# How it was run: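 GST-fused DNA-binding domains of P. falciparum, expressed in E. coli, were applied at about 25 μg on average for 1 h to an Agilent 4 × 180k array of primer-extended double-stranded 36-bp intergenic genomic probes and negative controls. Binding intensity is the highest Masliner-normalised natural-log median intensity across replicate spots of either probe orientation, measured with Alexa488 anti-GST antibody and a 488 nm scan.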
row,Sequence,gcPBM binding intensity (ln)
1,AAAAGAATAATAATTTATGTATATTAATTAAAGAAT [XGTACX_negctrl_site402],6.94
2,TATCATATATTATATGCACACATGTTTTTCAAGAAT [CACACA_site1892],7.6
3,AAACGTAACATATATATATATATATATAAGATATAT [CACACA_negctrl_site126],7.85
4,ATAAATCTACACCGCACACAAAAACAACAAATATTA [CACACA_site5396],7.3
5,AATGAATATATATAAATATATATATATATATATATA [CACACA_negctrl_site1494],9.61
6,ATATTTGTATAAATTGCACACTTTATTTTTTTTAAG [CACACA_site1558],6.97
7,ATGTTATTACATAATTGTACATTTTGAGCAATTAAG [XGTACX_site4640],6.85
8,AAATTCAATTTGCGCTGTACATGAAGATATAAATTT [XGTACX_site4844],6.9
9,ATACCTGTTGTGTTACGTACATAATTTTAATGTTTG [XGTACX_site8181],7.13
10,AAAAAAAACACGCGCACACACACACCCACAGACACA [CACACA_site5253],7.1
11,TATATATATAAATACACACACACACCCCAAAGCGTA [CACACA_site4211],8.01
12,TATTTTTTAAAAAATTATAAATAAAATTATATTACG [CACACA_negctrl_site324],7.04
13,TATAATATATTCACTCGTACATATTTAATAATATCT [XGTACX_site6209],7.03
14,ACAGTATATTAAAAAATACACACGTATTATATCTAC [CACACA_site2640],6.82
15,ATTTTATTTTTGTGCACACTGATAAATTGAAAAGAG [CACACA_site2948],10.1
16,TATATATATATAATATGTACATATATTAAGCATTTT [XGTACX_site4470],8.79
17,AAAAAAAAAAATTAAAGTACTAATTAAAATTATATG [XGTACX_site5289],6.64
18,TTTTAATTAAATAAATGTACTCATTCTATTATTTAT [XGTACX_site3032],6.98
19,ATAAATTTTTTATGAACACACAAATACCCACGCTCA [CACACA_site2659],7
20,ATGTATAAACAAAAGGGTACATATATATATATATAT [XGTACX_site2087],9.03
21,AGAAAAATTACAAAATGTACATAATGTGTTATTAAT [XGTACX_site7877],6.92
22,ATTAAGTACTAAAAAGTGCAGTTCGGTACTGTGCTT [GTGCAC_site9755],8.08

row,Sequence,gcPBM binding intensity (ln)
1,AAGTACATACATAAAACACACACATATATATATATA [CACACA_site8541],9.76
2,AATAAAAAACATGAAAGTACTTTAAAAAAGGTAATA [XGTACX_site1897],6.94
3,AATATATAAATCAATAGTACATATATATATATATAT [XGTACX_site3898],9.55
4,ATTAAATATGAGGGAACACACACATGATATATAAAT [CACACA_site8755],6.98
5,TTATATAAAGAATGTACACACAGAAATGCACCCACA [CACACA_site2282],12.2
6,TTATATTTATAAAGGTGTACCTTAAAATGATTTTAC [XGTACX_site3774],6.82
7,AAAATTAAATAAAAATGTACAGAAATATTATATGAA [XGTACX_site5695],7.11
8,ATATATTATATTAATTGTACATAAAAAAGAGAAAAA [XGTACX_site3366],7.08
9,CCAAAAAATATATGTAGTACTACATTATTAAATATG [XGTACX_site5128],7.32
10,ATAATATCTTCTTTTTTTTTTTTTTTTTTTTTTTTT [CACACA_negctrl_site1005],8.6
11,AAAAAAAAAAAAAAAAGTACATATATATATAATTAT [XGTACX_site7836],7.42
12,AAATGATGCATTTGTCATTAAAATTGTGAAATATTA [CACACA_negctrl_site231],6.75
13,ATATATATATAATGTGTACACACATATGTATTTATA [CACACA_site8170],8.99
14,TAATTAAGATGATAAAAATTGAAAAAACAATTTTAA [CACACA_negctrl_site658],6.61
15,TATAATAAAATATGTACACACATACAGACATATATA [CACACA_site6693],7.39
16,AGAGTATATAAAGTAACACACAATAAAATAAAATAA [CACACA_site2328],6.9
17,CATATAGTATAAATTTGTACATAAATATATATATAT [XGTACX_site7477],8.69
18,TACATACACGGACACACACACATATATATATATATA [CACACA_site5883],9.4
19,AAGAAATATATATATATATATATATATATATATGTA [TGCATGCA_negctrl_site442],8.04
20,TAATTTTATATTAAAAGTACATAATAAAAACTATAA [XGTACX_site8779],6.99
21,TTTAAAAACAAATATTGTACAAATTAAAATATATCA [XGTACX_site7220],6.99
22,AGAGCATAATAAAACACACACATACATACAGATATA [CACACA_site4671],7.08

row,Sequence,gcPBM binding intensity (ln)
1,TGATGATATAAAAACACACACATATAATATAATACT [CACACA_site1208],6.88
2,CACTAATATATATACAGTACATAATAAAGTATATAA [XGTACX_site6875],6.95
3,CTGTTTTACTTTAGTAGTACAATAAAAATATAAAAA [XGTACX_site2934],7.59
4,TATTACCCATATTATACACACATATATTATATATAT [CACACA_site1567],7.75
5,AAAAAAAAAAAACATACACACAAATATATACATACA [CACACA_site4011],6.99
6,TAAATTTGTGGGATTTCACACAGGTTTATTTACATT [CACACA_site5455],6.42
7,ATGTAGGTTAATTATTGTACGTAGGGGGTGTATATT [XGTACX_site3973],8.23
8,TTCAGAGAATAAAAATGTACATATAATATTTTAAAA [XGTACX_site577],6.73
9,CTCTTGTCATTTTGCACACACACATGTATAGGTTAT [CACACA_site3057],8
10,TTTCTAATTTATATCACACACATATATTTATAGTAA [CACACA_site6280],7
11,GTTTACTAATATTGCACACGAATATGAAAAAGAGAA [CACACA_site2897],7.61
12,TTGCTTATTAAATGGGGTACATTATATATATATATA [XGTACX_site2515],8.8
13,GTGTTAACTATTATGAGTACTTATGTATTAATTCAT [XGTACX_site7767],7.34
14,ATTTATTTATACAAAGTGCAATATTTTGTTAAAGTC [GTGCAC_site9618],7.89
15,AAACAAAATATGGTTCATGAGCAAAAGTTTATTTTG [XGTACX_negctrl_site531],6.7
16,AATGTAAAATATAAATGTACATATATATATATATAT [XGTACX_site5071],9.17
17,CTCTTTTCTTATAATACACACAGTAATATATATATA [CACACA_site1520],8.57
18,TATAAAATACATTTATAATATATATATATATTTTTT [TGCATGCA_negctrl_site435],7.13
19,ATATGAAATATATAAATATGTTTATATATATATATA [GTGCAC_negctrl_site94],9.1
20,TGTGTTTATACGTTTTGTACATATTTTTATTTTGTA [XGTACX_site6425],6.91
21,TTTACATCAACCTTTTCACACATTCATATACAGATA [CACACA_site6152],7.29
22,TTCAAAAAATAAAATAATAATATATATATAAATATA [XGTACX_negctrl_site84],6.65

row,Sequence,gcPBM binding intensity (ln)
1,TCATTAAAGGAAAAATGTACGTATAAATAAATATAT [XGTACX_site2587],7.07
2,TTTTTTATATTTAAACTTCACATGGTTTTCATTTAT [XGTACX_negctrl_site291],6.85
3,ATACATATATATATATGTACACATAAACATGAGTGA [XGTACX_site3200],7.27
4,TAATGGAAACCATTTATTTTCTGCAATATATTTTTT [CACACA_negctrl_site1653],6.58
5,ATACATAAAATTAAAACACACATTTTATTAAATACG [CACACA_site2167],6.91
6,AGTTATATGGTTAATACACACAACAAATGTTTCTTC [CACACA_site6642],6.91
7,GTGTGATGGTACAATATACACACTTAAAAAAAAAAA [CACACA_site8769],7.04
8,AAAAAATATATTTGCACACTCAAAAAAAAAAAAAAA [CACACA_site859],7.3
9,TACCTAATATGTTATACACACATTATAAGTACATAT [CACACA_site7206],7.23
10,AATATAACTTAGAATTGTACATAAAAAAAAATATAT [XGTACX_site3313],7.12
11,TAAGAAATAAATAGTACACACATAGACACACGCACA [CACACA_site6821],8
12,TTTTGTTTAATATTCACACATATATATTTTTTATTT [CACACA_site5496],7.17
13,CTTTTTATTTAGGAGGTGCATGTAATACGGAACATA,10.9
14,ATTTGTTATATATTCTTTTATGTTAATAATTCGAAT [CACACA_negctrl_site378],7.07
15,GATCTATACATGGGGACACACATCACTCTATATTTT [CACACA_site3408],7.33
16,TATGAATAAAAAAGAAGTACAAATTATATGAACGCA [XGTACX_site3018],7.25
17,AAAAAATACAAACACACACACACACCCATATATATA [CACACA_site3560],7.52
18,CATACTGTTATAAAATGTACGCATATACACACACAT [XGTACX_site7256],7.26
19,TACATATTTTGTATATATTATTTATTTTATTAGTTT [XGTACX_negctrl_site85],6.74
20,TTCTGACTTGTTATAATTTGTATATCCGAAAAAATT [TGCATGCA_negctrl_site456],7.04
21,ACTATTATTAAAAATTGTACTTTCTATAAATTTTTT [XGTACX_site7825],7.14
22,ATTTTGTGTAGTGATGCATGTTATATATATATTTGA [TGCATGCA_site422],7.33

# Reference: the supplement of paper PMC11417369
